# This is one part of the list.
# B1: LICBM33A (Lactococcus lactis), Q9CE94 (protein)
# chain: MKKLLTGLLVAAGLLSVSLLIKTDTVSAHGYVQSPPARGYQGQLDSQSLGWTAAFNIYGNVISNPQSLEAPKGFPECGPADGRIASANGGLGQIGDFVLDNQTSSRWKKTSISTGSNIFTWKYTAPHKTTKWHYYMTKTGWDQNAPLKHSELELIGTINHDGSPATNNLSHTINIPTDRSGYHIVLAVWDVADTSNAFYNVIDINVNNKNASSQVFGPFL
# Columns and labels:
# Assay in all cases: glycan array binding signal (z-score within array); higher = stronger binding
# Conditions in all cases: glycan notation: IUPAC condensed, linker removed
# [1] = molecular target: Fuc(a1-2)Gal(b1-4)GlcNAc(b1-3)Gal(b1-4)GlcNAc(b1-2)Man(a1-3)[Fuc(a1-2)Gal(b1-4)GlcNAc(b1-3)Gal(b1-4)GlcNAc(b1-2)Man(a1-6)]Man(b1-4)GlcNAc(b1-4)GlcNAc
# Summary of the method: (§1)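 Negative Z-scores can be read as non-binding. The Z-score is calculated within each array and then averaged across arrays of one protein sequence at different concentrations or buffers and across linkers. Arrays, 3228 in all, were curated from the Consortium for Functional Glycomics database and kept only where the protein sequence was available.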
# [2] = molecular target: Fuc(a1-2)Gal(b1-4)GlcNAc(b1-3)Gal(b1-4)GlcNAc(b1-3)Gal(b1-4)GlcNAc
# Summary of the method: as §1
# [3] = molecular target: Fuc(a1-2)Gal(b1-4)GlcNAc(b1-3)GalNAc
# Summary of the method: as §1
# [4] = molecular target: Fuc(a1-2)Gal(b1-4)GlcNAc(b1-3)[Fuc(a1-2)Gal(b1-4)GlcNAc(b1-6)]GalNAc
# Summary of the method: as §1
# [5] = molecular target: Fuc(a1-2)Gal(b1-4)GlcNAc(b1-3)[Fuc(a1-3)[Gal(b1-4)]GlcNAc(b1-6)]Gal(b1-4)Glc
# Summary of the method: as §1
# [6] = molecular target: Fuc(a1-2)Gal(b1-4)GlcNAc(b1-6)GalNAc
# Summary of the method: as §1
# [7] = molecular target: Fuc(a1-2)Gal(b1-4)GlcNAc6S
# Summary of the method: as §1
# [8] = molecular target: Fuc(a1-2)Gal(b1-4)[Fuc(a1-3)]GlcNAc
# Summary of the method: as §1
# [9] = molecular target: Fuc(a1-2)Gal(b1-4)[Fuc(a1-3)]GlcNAc(b1-2)Man(a1-3)[Fuc(a1-2)Gal(b1-4)[Fuc(a1-3)]GlcNAc(b1-2)Man(a1-6)]Man(b1-4)GlcNAc(b1-4)[Fuc(a1-6)]GlcNAc
# Summary of the method: as §1
# [10] = molecular target: Fuc(a1-2)Gal(b1-4)[Fuc(a1-3)]GlcNAc(b1-2)[Fuc(a1-2)Gal(b1-4)[Fuc(a1-3)]GlcNAc(b1-4)]Man(a1-3)[Fuc(a1-2)Gal(b1-4)[Fuc(a1-3)]GlcNAc(b1-2)Man(a1-6)]Man(b1-4)GlcNAc(b1-4)GlcNAc
# Summary of the method: as §1
# [11] = molecular target: Fuc(a1-2)Gal(b1-4)[Fuc(a1-3)]GlcNAc(b1-3)Gal(b1-4)[Fuc(a1-3)]GlcNAc
# Summary of the method: as §1
# [12] = molecular target: Fuc(a1-2)Gal(b1-4)[Fuc(a1-3)]GlcNAc(b1-3)Gal(b1-4)[Fuc(a1-3)]GlcNAc(b1-3)Gal(b1-4)[Fuc(a1-3)]GlcNAc
# Summary of the method: as §1
# [13] = molecular target: Fuc(a1-2)Gal(b1-4)[Fuc(a1-3)]GlcNAc(b1-3)GalNAc
# Summary of the method: as §1
# [14] = molecular target: Fuc(a1-2)Gal(b1-4)[Fuc(a1-3)]GlcNAc(b1-3)[Neu5Ac(a2-6)Gal(b1-4)GlcNAc(b1-6)]Gal(b1-4)Glc
# Summary of the method: as §1
# [15] = molecular target: Fuc(a1-2)Gal3S(b1-4)GlcNAc
# Summary of the method: as §1
# [16] = molecular target: Fuc(a1-2)Gal6S(b1-3)GlcNAc
# Summary of the method: as §1
# [17] = molecular target: Fuc(a1-2)Gal6S(b1-3)GlcNAc6S
# Summary of the method: as §1
# Fuc(a1-2)Gal6S(b1-4)Glc = molecular target: Fuc(a1-2)Gal6S(b1-4)Glc
# Summary of the method: as §1
# [18] = molecular target: Fuc(a1-2)Gal6S(b1-4)Glc6S
# Summary of the method: as §1
# Fuc(a1-2)[Gal(a1-3)]Gal = molecular target: Fuc(a1-2)[Gal(a1-3)]Gal
# Summary of the method: as §1
# [19] = molecular target: Fuc(a1-2)[Gal(a1-3)]Gal(b1-3)GalNAc
# Summary of the method: as §1
# [20] = molecular target: Fuc(a1-2)[Gal(a1-3)]Gal(b1-3)GalNAc(b1-3)Gal(a1-4)Gal(b1-4)Glc
# Summary of the method: as §1
# [21] = molecular target: Fuc(a1-2)[Gal(a1-3)]Gal(b1-3)GlcNAc
# Summary of the method: as §1
# [22] = molecular target: Fuc(a1-2)[Gal(a1-3)]Gal(b1-3)GlcNAc(b1-2)Man(a1-3)[Fuc(a1-2)[Gal(a1-3)]Gal(b1-3)GlcNAc(b1-2)Man(a1-6)]Man(b1-4)GlcNAc(b1-4)GlcNAc
# Summary of the method: as §1
# [23] = molecular target: Fuc(a1-2)[Gal(a1-3)]Gal(b1-3)GlcNAc(b1-2)Man(a1-3)[Fuc(a1-2)[Gal(a1-3)]Gal(b1-3)GlcNAc(b1-2)Man(a1-6)]Man(b1-4)GlcNAc(b1-4)[Fuc(a1-6)]GlcNAc
# Summary of the method: as §1
# [24] = molecular target: Fuc(a1-2)[Gal(a1-3)]Gal(b1-3)GlcNAc(b1-3)GalNAc
# Summary of the method: as §1
# [25] = molecular target: Fuc(a1-2)[Gal(a1-3)]Gal(b1-3)GlcNAc(b1-6)GalNAc
# Summary of the method: as §1
# [26] = molecular target: Fuc(a1-2)[Gal(a1-3)]Gal(b1-4)Glc
# Summary of the method: as §1
# [27] = molecular target: Fuc(a1-2)[Gal(a1-3)]Gal(b1-4)GlcNAc
# Summary of the method: as §1
# [28] = molecular target: Fuc(a1-2)[Gal(a1-3)]Gal(b1-4)GlcNAc(b1-2)Man
# Summary of the method: as §1
binder,measurement,setting,value
B1,glycan array binding signal (z-score),[1],-0.145
same,glycan array binding signal (z-score),[2],-0.698
same,glycan array binding signal (z-score),[3],-0.457
same,glycan array binding signal (z-score),[4],1.2
same,glycan array binding signal (z-score),[5],-0.861
same,glycan array binding signal (z-score),[6],1.8
same,glycan array binding signal (z-score),[7],-0.791
same,glycan array binding signal (z-score),[8],-0.296
same,glycan array binding signal (z-score),[9],-0.366
same,glycan array binding signal (z-score),[10],-0.801
same,glycan array binding signal (z-score),[11],-0.587
same,glycan array binding signal (z-score),[12],-0.352
same,glycan array binding signal (z-score),[13],-0.621
same,glycan array binding signal (z-score),[14],-0.597
same,glycan array binding signal (z-score),[15],3.62
same,glycan array binding signal (z-score),[16],-0.643
same,glycan array binding signal (z-score),[17],0.187
same,glycan array binding signal (z-score),Fuc(a1-2)Gal6S(b1-4)Glc,-0.482
same,glycan array binding signal (z-score),[18],2.58
same,glycan array binding signal (z-score),Fuc(a1-2)[Gal(a1-3)]Gal,-0.276
same,glycan array binding signal (z-score),[19],-0.389
same,glycan array binding signal (z-score),[20],-0.196
same,glycan array binding signal (z-score),[21],-0.066
same,glycan array binding signal (z-score),[22],-0.283
same,glycan array binding signal (z-score),[23],0.253
same,glycan array binding signal (z-score),[24],1.39
same,glycan array binding signal (z-score),[25],-0.453
same,glycan array binding signal (z-score),[26],-0.488
same,glycan array binding signal (z-score),[27],-0.034
same,glycan array binding signal (z-score),[28],-0.459

# — the supplement of paper PMC8728848
